Laboratory results: paper PMC4336329 (PLoS ONE, 2015)
About 14,000 (4.5%) of roughly 310,000 compounds showed an effect of 50% or more. Effects have a minus sign here. Some of the results follow.

What follows are molecules tested against human ether-à-go-go-related gene (hERG) potassium channel (human, UniProt Q12809) (assay: primary screen, population patch clamp on CHO cells stably expressing hERG).
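Also: peak tail current of the secondary pulse compared with the same well before compound.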

Sequence of human ether-à-go-go-related gene (hERG) potassium channel (Q12809 whole entry, looked up): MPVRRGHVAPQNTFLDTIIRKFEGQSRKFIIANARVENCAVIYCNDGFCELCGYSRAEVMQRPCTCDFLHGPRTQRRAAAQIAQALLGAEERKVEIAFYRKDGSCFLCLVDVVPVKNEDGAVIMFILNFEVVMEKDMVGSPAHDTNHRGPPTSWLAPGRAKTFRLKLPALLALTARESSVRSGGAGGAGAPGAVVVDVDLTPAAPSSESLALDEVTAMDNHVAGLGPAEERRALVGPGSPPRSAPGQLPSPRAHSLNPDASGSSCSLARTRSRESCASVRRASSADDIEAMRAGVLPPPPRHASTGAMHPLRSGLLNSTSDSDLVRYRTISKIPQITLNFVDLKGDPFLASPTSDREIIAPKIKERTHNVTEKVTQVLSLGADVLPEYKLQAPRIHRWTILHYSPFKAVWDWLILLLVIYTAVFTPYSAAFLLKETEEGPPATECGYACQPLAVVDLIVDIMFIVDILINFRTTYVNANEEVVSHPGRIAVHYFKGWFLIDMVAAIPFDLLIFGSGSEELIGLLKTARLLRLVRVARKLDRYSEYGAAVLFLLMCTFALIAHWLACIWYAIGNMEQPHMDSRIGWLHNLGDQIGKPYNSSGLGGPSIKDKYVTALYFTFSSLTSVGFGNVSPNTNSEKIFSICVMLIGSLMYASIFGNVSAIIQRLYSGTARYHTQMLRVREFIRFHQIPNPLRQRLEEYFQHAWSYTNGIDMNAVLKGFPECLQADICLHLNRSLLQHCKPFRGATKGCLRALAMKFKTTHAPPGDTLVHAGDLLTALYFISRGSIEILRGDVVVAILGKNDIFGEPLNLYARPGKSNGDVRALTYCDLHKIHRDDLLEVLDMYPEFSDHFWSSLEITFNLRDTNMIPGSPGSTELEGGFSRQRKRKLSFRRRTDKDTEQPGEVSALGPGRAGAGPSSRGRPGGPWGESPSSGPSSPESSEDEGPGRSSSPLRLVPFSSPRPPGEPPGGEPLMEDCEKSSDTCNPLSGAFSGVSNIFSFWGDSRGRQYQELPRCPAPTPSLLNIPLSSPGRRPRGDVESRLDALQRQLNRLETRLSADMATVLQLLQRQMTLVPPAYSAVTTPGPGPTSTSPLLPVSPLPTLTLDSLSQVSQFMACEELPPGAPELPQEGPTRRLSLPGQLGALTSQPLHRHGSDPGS

Structure (SMILES)	hERG current change (%, negative = inhibition) at 10uM
Cc1cc(C(=O)O)ccc1[N+](=O)[O-]	15.6%
CCOc1ccc(N=C(C)c2ccccc2O)cc1	14.3%
Cn1c(Cn2c(=O)sc3ccccc32)nnc1SCC(=O)Nc1ccccc1	-2.13%
Cc1ccc(OCCSc2nnc(-c3ccncc3)n2C)cc1	-28.9%
COc1ccc(OC)c(C(=O)c2ccc(C(=O)N3CCCCC3)cc2)c1	-5.97%
COc1cccc(CNC(=S)Nc2ccc(Cl)cc2C)c1	-1.41%
COc1ccc(CN(C)C(=S)Nc2ccc(OC(F)F)cc2)cc1	-58.9%
CN(C)c1ccc(NC(=O)COC(=O)CCC(=O)c2ccc(F)cc2)cc1	-18.4%
Cc1ccc(C(=O)NC(=S)Nc2ccc(NC(=O)c3cccs3)cc2)cc1[N+](=O)[O-]	5.05%
CC(C)CN(CC(C)C)C(=O)COn1nnc2ccc(S(=O)(=O)N3CCOCC3)cc21	-34.8%
CCOc1cc(/C=N/NC(=O)c2cc(-c3cccc(OC)c3)nc3ccccc23)ccc1O	5.53%
Cc1ccc(NC2Sc3ccccc3NC2=O)cc1Cl (centres unmarked)	5.18%
COc1cc(/C=C2\C(=N)N3N=C(C(C)C)SC3=NC2=O)ccc1OCCOc1ccc(NC(C)=O)cc1	7.55%
CCOc1ccc(NC(=O)NC2CCCCCCC2)cc1	10.9%
CN(C)c1ccc(C(=O)OCC(=O)Nc2ccc(N3CCOCC3)cc2)cc1	5.99%
COc1ccc(-n2c(SCC(=O)N3CCOCC3)nc3ccccc3c2=O)cc1	15.2%
Cc1nnc(SCC(=O)Nc2nccs2)n(N)c1=O	19.4%
CCCc1nc(SCC(=O)N2CCc3ccccc32)c2c(C)c(C)sc2n1	17.4%
CCC(C)(C)NC(=O)C(C(C)C)N(CC1CCCO1)C(=O)CNS(=O)(=O)c1ccc(F)cc1 (centres unmarked)	-5.41%

Structure (SMILES)	hERG current change (%, negative = inhibition) at 10uM
COc1cc(CN2CCC(Cc3ccccc3)CC2)c([N+](=O)[O-])cc1OC	0.589%
CN(Cc1cc2ccccc2[nH]c1=O)C(=O)C1CCCCC1	-71.6%
COC(=O)C1=C(c2c(C)noc2C)C[C@@H]2CC[C@H]1N2C(=O)NCCO	20%
C=CCn1c(SCC(=O)N2CCc3ccccc3C2)nc2sc(CC)cc2c1=O	-34.5%
CCC(C)NC(=O)CN(C1CCCCC1)S(=O)(=O)c1ccc(F)cc1 (centres unmarked)	8.05%
C=CCn1c(SCC(=O)N2CCCC2=O)nc2sc(CC)cc2c1=O	-70.9%
O=C(Oc1ccccc1Cl)c1ccc2c(=O)n3c(nc2c1)CCC3	3.84%
Cc1c(O)c(S(=O)(=O)c2ccccc2)c(=O)n(-c2ccccc2)c1-c1ccccc1	3.84%
CC1(c2ccc(OC(F)F)cc2)NC(=O)N(/N=C/c2c(O)ccc3ccccc23)C1=O (centres unmarked)	2.07%
COc1cc(C)c(C)cc1S(=O)(=O)N1CCN(Cc2ccccc2)CC1	-17.9%
COCCOC(=O)C1=C(C)N=C2SCCC(=O)N2C1c1cccs1 (centres unmarked)	13.8%
CCCCc1cc(=O)oc2cc(OCC(=O)N3CCC(C(N)=O)CC3)ccc12	-4.46%
O=C(NCCNC(=O)c1cccs1)c1ccco1	16.8%
CCOc1ccc(S(=O)(=O)N2CCN(C(=O)CCOc3ccccc3C)CC2)cc1	-25.6%
COc1ccc(C2OC3=C(Nc4cc(C)c(C)cc4N3)C2=O)cc1 (centres unmarked)	25.4%
COc1ccc(-n2nnnc2SCC(=O)Nc2ccc3c(c2)OCCO3)cc1OC	1.87%
Nc1cc(C(=O)Nc2ccc(Cl)cc2)ccc1N1CC2CC(C1)c1cccc(=O)n1C2 (centres unmarked)	-62.1%
CC1(C)Cc2c(sc3nnn(CC(=O)Nc4ccccc4)c(=O)c23)CO1	-11.6%
O=C(NCC1CCCCC1)c1ccco1	7.39%

Structure (SMILES)	hERG current change (%, negative = inhibition) at 10uM
COc1ccc(CCNC(=O)c2ccc(NS(=O)(=O)c3ccc4[nH]c(=O)[nH]c4c3)cc2)cc1	13.2%
Cc1nc(-c2ccccc2)sc1-c1nc(-c2ccncc2)ncc1S(=O)(=O)c1ccccc1	-6.61%
Cn1c(=O)c2c(SCC(=O)N3CCOCC3)nc(-c3ccccc3Cl)nc2n(C)c1=O	-4.14%
CCCNC(=O)C1CC2Cn3c(nc4ccccc43)C2N1C (centres unmarked)	12.8%
O=C(Nc1nc2c(Cl)cccc2s1)c1ccc(Br)o1	-7.37%
O=C(CCC(=O)Nc1ccccc1Cl)NNC(=O)c1ccccc1[N+](=O)[O-]	21.5%
Cc1ccc2nc(SCC(=O)NCc3ccco3)c(C)cc2c1	7.89%
O=C(N/N=C/c1cccc(Cl)c1)C1CCCC1	14.6%
Cc1ccc2nc(/C(C#N)=C/c3ccc(-c4cccc([N+](=O)[O-])c4)o3)[nH]c2c1	-3.95%
Cn1c2ccccc2c2nnc(SC3CCOC3=O)nc21 (centres unmarked)	-11.1%
COc1ccc(NC(=O)c2c3c(nc4ccccc24)CCC3)cc1	10.1%
O=C(NN1CCOCC1)c1cccc(Cl)c1	2.42%
COc1ccc(-c2csc(NC(=O)CSc3nc(C)cs3)n2)cc1	8.6%
CSc1nnc(NC(=O)c2ccco2)s1	15.8%
CCc1nnc(NC(=O)CSc2nc3ccccc3c(=O)n2CCCOC)s1	-0.908%
COC(=O)c1c(-c2cccs2)csc1NC(=O)c1cccnc1	-1.09%
Cc1nc2c(C)[n+](CC(=O)c3ccccc3)ccc2n1C.[Br-]	11.7%
COc1ccc(Cl)cc1-c1nc(SCC(=O)N(C)C)n[nH]1	10.5%
